The values below come from PMC12136788.

First the molecules themselves.
T1: UNK ZnF1-6 (called full-length) (human, UniProt Q9C0B0 30-357)
T1 sequence: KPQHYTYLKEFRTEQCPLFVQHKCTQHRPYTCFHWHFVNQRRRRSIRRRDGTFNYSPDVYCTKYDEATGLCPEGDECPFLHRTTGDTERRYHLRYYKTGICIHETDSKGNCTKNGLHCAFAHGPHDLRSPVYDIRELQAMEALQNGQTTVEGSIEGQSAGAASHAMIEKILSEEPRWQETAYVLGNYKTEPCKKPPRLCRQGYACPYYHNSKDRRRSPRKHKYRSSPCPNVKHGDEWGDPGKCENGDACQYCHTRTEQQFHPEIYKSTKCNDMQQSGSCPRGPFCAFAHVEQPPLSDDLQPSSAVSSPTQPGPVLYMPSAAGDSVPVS

B1: chr7:101137467:101137738:+|3pUTR|ENSG00000106366|msi1|total|mutant (ssRNA)
RNA: GGGAGUUCUACAGUCCGACGAUCGUUAAAAGAUGGUAAACCAGAUCUGUCUCCAAGACCUUGGCCUCUCCUUGGAGGACCUUCCGGUCAAACUCCCCCGUCUCCACCUGAGACCCUGGGAGAGAAGUUUGAAGCACAACUCCCCAACAGAGGAUUGAGCAUCA
B2: chr22:45344062:45344555:-|three_prime_utr|ENSG00000077935|control|control|control (ssRNA)
RNA: GGGAGUUCUACAGUCCGACGAUCUCCACAGGAGACUUCUGGAGCAAGCAGGACCAGCCUGGUGCACCCUUUAAGAGAAACCUUAGUCGUUCUAGCCAAAGAGGCUGUGGCUCACUUUAGUUGAGUGUUCAGACCUCAUUCUAGCAACAGAGGAUUGAGCAUCA
B3: chr1:162783069:162783171:+|3pUTR|ENSG00000162733|unk|FALSE|unique (ssRNA)
RNA: GGGAGUUCUACAGUCCGACGAUCUGAAAGUAGUUCAAAUUUGAAUUAGAAGAAUGAAGCUAGGACUUAUUUGGAAAAGGAGAUAGAAAAAAAAUGAUCAGAAACUGUGGGGCCUUAUUACCUUUGCAGUAAGUUAUCUUCUUCCAACAGAGGAUUGAGCAUCA
B4: ENSG00000100401:stop:overlap|stop_codon|ENSG00000100401|stop_codon|NA|stop_codon (ssRNA)
RNA: GGGAGUUCUACAGUCCGACGAUCGCGCCCUGGAAUCCUGCUCCUUCGCCCGCCACAGUCUGCUGCAGACGCUGUACAAGGUCUAGACUCAAAGCCUCUCCCAUCCCUUGGCCUGGACCAGUGAGCUGGGGAGGGACUCGGAUGCAACAGAGGAUUGAGCAUCA
B5: ENSG00000135709:stop:overlap|stop_codon|ENSG00000135709|stop_codon|NA|stop_codon (ssRNA)
RNA: GGGAGUUCUACAGUCCGACGAUCACCUGGAUGAAGAGCAAUACAAGCUGCUUAGUGACCACAUUGAGCAAAUGGCCACUGAGUAGGCCCCAGAGGUCGCACUCCGCAGGAGGACUGAGGCCAUGUGCCAUUCUCCCGGGCCCACAACAGAGGAUUGAGCAUCA
B6: chr6:122453778:122453910:-|CDS|ENSG00000111897|unk|total|mutant (ssRNA)
RNA: GGGAGUUCUACAGUCCGACGAUCCCUUUCAGUGUGGUUUUAUGCCGGCAUGGCAGGUGCCUUUUGUUUCAUCCUCAUACAACCCGUCUUACUUAUUGAUUUUGCACAUUCAUGGAAUGAAUCGUGGGUUGAAAAAAUGGAAGACAACAGAGGAUUGAGCAUCA
B7: chr1:17826356:17826472:+|CDS|ENSG00000117148|unk|total|mutant (ssRNA)
RNA: GGGAGUUCUACAGUCCGACGAUCAGGGAGCUGAUGGGGGAUCACGUCUCCUCCACCAAGGCCACAGUCUGGGAGGGUUCCAACCGAAACUUCCGUGUCUGGCCCGGAGCGUCCGUGGUGGCUCACCUUUCUACCUACCAGUCUCAACAGAGGAUUGAGCAUCA
B8: chr11:118373572:118373686:+|CDS|ENSG00000110344|unk|total|mutant (ssRNA)
RNA: GGGAGUUCUACAGUCCGACGAUCGAAGACCUUGCUGGGAGUAAUUCUGAGUAUCUCCUGCUUAUUAAAGACUCCGGGUGUUGCCGAAAAUCAUGGCUACUUUUUGAAUCCAUCUCGUUCCAGCCCCCAGGAGAUCAAAGUACACAACAGAGGAUUGAGCAUCA
B9: chr1:161171309:161171815:-|three_prime_utr|ENSG00000158850|control|control|control (ssRNA)
RNA: GGGAGUUCUACAGUCCGACGAUCACCCUCAGCUCCUCACUGUUCUCAGAGGGAUGUGAGGGAACUGAACUCUGGUGCCGUGCUAGGGGGUAGGGGCCUCUCCCUCACUGCUGGACUGGAGCUGGGCUCCUGUAGACCUGAGGGCAACAGAGGAUUGAGCAUCA
B10: chr9:116699486:116699595:+|CDS|ENSG00000119401|unk|FALSE|unique (ssRNA)
RNA: GGGAGUUCUACAGUCCGACGAUCUUCCGCUGCAUUGCUGGCAUGUGUGUGGAUGCUCGUGGUGAUCUCAUCGUGGCUGACAGUAGUCGCAAGGAAAUUCUCCAUUUUCCUAAGGGUGGGGGCUAUAGUGUCCUUAUUCGAGAGCAACAGAGGAUUGAGCAUCA
B11: chr12:120444061:120444162:-|3pUTR|ENSG00000170855|unk|FALSE|unique (ssRNA)
RNA: GGGAGUUCUACAGUCCGACGAUCAAUUGUCAACCUGCAUAUCCUAAAAAUGUCAAAAUGCUGCAUCUGGUUAAAUGUCGGGGUAGGGGGGAAGCUGAAGGUGCUCGCUUCAUUUGCCUUGUUUACUCAUCCUGCCCUGUAAUGCAACAGAGGAUUGAGCAUCA
B12: chr1:225789428:225789553:+|3pUTR|ENSG00000143742|unk|total|mutant (ssRNA)
RNA: GGGAGUUCUACAGUCCGACGAUCUCCGAGAAAGUGUUGGGACAGAAAGUACUUUAUGUAACUAAGUGGGCUGUUCAGAAGCUCCGAGGUCAUUUUUUGUAAUUUUCUUUUUAAUUACUUCCGAGAGCCCGGGAUGCAAAUGUUCAACAGAGGAUUGAGCAUCA
B13: chr22:35295155:35295256:+|3pUTR|ENSG00000100281|unk|total|mutant (ssRNA)
RNA: GGGAGUUCUACAGUCCGACGAUCUUUCUUCUCCUGGCCCUGACAGAGCACUACAGCAUCAAAGUAAAUCUUUGGGGACAGUGCCGCCCAUCUGCAUCCUAUUUAAUUUCUUCCCUUCUCCCCACCAGUGUUGUCACAGGGCUACAACAGAGGAUUGAGCAUCA
B14: chr3:46835109:46836203:-|three_prime_utr|ENSG00000160808|control|control|control (ssRNA)
RNA: GGGAGUUCUACAGUCCGACGAUCUGAAGGCACAAGCUGUUCCAGUAUAAUAAAGAAAAUAAUUAAAUUAAGAAAAGUUAUACUAGAAAUAAGAUAUAGGUAUGAUUAUUAUUAAUCAUUAGUUUGUAGUAUUACUUUGUUCUACAACAGAGGAUUGAGCAUCA
B15: ENSG00000175387:stop:overlap|stop_codon|ENSG00000175387|stop_codon|NA|stop_codon (ssRNA)
RNA: GGGAGUUCUACAGUCCGACGAUCUGUUUCAUUGCAUUCUUGCAUAUUCUGGAGUUCAUUUGUAUCUAUUUUCAAUGAGGUUAUAGAGUCAGCUGAUCUUUAUGUAAAAUAAAGUUGGAGGCCUCCAAAUUCAAAACUGUUGCACAACAGAGGAUUGAGCAUCA
B16: chr2:88557131:88557241:-|3pUTR|ENSG00000172071|msi1|FALSE|unique (ssRNA)
RNA: GGGAGUUCUACAGUCCGACGAUCGAGGACAAGUAGCACAAACUGUAUAACGGUUUAUGUCCGUAGUUUUAUAGUCCUAUUUGUAGCAUUCAAUAGCUUUAUUCCUUAGAUGGUUCUAGGGUGGGUUUACAGCUUUUUGUACUUCAACAGAGGAUUGAGCAUCA
B17: ENSG00000107863:be:win_3801|CDS|ENSG00000107863|bound_else_gene|NA|bound_elsewhere_windowed (ssRNA)
RNA: GGGAGUUCUACAGUCCGACGAUCUGAACAUCAUUAUGAAACACUUAAGUUCCUUUCAGCUCAUCUGAAGACAGUGGCAGAAAAUUCAGAAAAAAAUAAGAUGGAACCAAGAAACCUAGCAAUAGUGUUUGGUCCCACCCUUGUCAACAGAGGAUUGAGCAUCA
B18: chr7:2664602:2664704:+|3pUTR|ENSG00000136295|msi1_unk|FALSE|overlapping (ssRNA)
RNA: GGGAGUUCUACAGUCCGACGAUCUCCUCCAGCCUCUGUAGGGCCAUGGCUGUAUGUACUGUCGCUGUGUUUUUUUGUUUUUUUAGAACUGGGUUUGGGGGCUGAUUUUUAUUUCUUUGGGGGCUUUUUUUCUUGGCAAAUACUCAACAGAGGAUUGAGCAUCA
B19: chr15:76949589:76949706:+|3pUTR|ENSG00000117906|msi1_unk|total|mutant (ssRNA)
RNA: GGGAGUUCUACAGUCCGACGAUCAUAAAUUUUUGUUUUUGUUCUAAGCCGAUUUAAUUUGGGAACUGACAGGACAAUGUUUUCCGGUUCCGCAUUUUGUUUAAAAACCUUUAAAGAAACCUUCCGAAGGACUCCGACCUCACACAACAGAGGAUUGAGCAUCA
B20: chr6:151351738:151351839:+|CDS|ENSG00000131016|msi1|total|mutant (ssRNA)
RNA: GGGAGUUCUACAGUCCGACGAUCGGUGGUGGGGCAGACCACCCCAGAAAGCUUUGAAAAAGCUCCUCAAGUCACAGAGAGCACCGAGUCCAGUGAGCUUGUAACCACUUGUCAAGCCGAAACCUCCGCUGGGGUAAAAUCACACAACAGAGGAUUGAGCAUCA
B21: chr11:73394502:73394603:+|CDS|ENSG00000054967|msi1|total|mutant (ssRNA)
RNA: GGGAGUUCUACAGUCCGACGAUCCACCAUCUCCACACCGUGCAGGGCCUGGCCUCGCUCUCUGGCCCCUGCUGCUCCCGCUGCCGCCAGAAGAAGUGGCCCGAGGUGCUGCUGUCCCCUGAGGCUGCCGCCGCCACUACUCCUCAACAGAGGAUUGAGCAUCA
B22: chr3:152464585:152464701:+|3pUTR|ENSG00000152601|msi1|total|mutant (ssRNA)
RNA: GGGAGUUCUACAGUCCGACGAUCAUAUUUUUGAAAUCCCUGAGUAUCAGGCCUUGUUAUAAAUAAGCUGCAUAAUCAAUAAACCGAACAAGGGACUUUUUGUUGAUAAUCCAAAUACUCAAAGUUUACGUAAUGAAAAUUAUACAACAGAGGAUUGAGCAUCA

Some of the results follow.

The target of the test is T1, UNK ZnF1-6 (called full-length). In words: nsRBNS (natural sequence RNA bind-n-seq); RBNS binding buffer (assumed for nsRBNS): 25 mM Tris pH 7.5, 150 mM KCl, 3 mM MgCl2, 0.01% Triton X-100, 500 ug/ml BSA, 20 U/ml SUPERase-In, 4 C; UNK is unkempt and MSI1 is Musashi-1; names of the RNAs are library labels; protein concentration not given here; high values mean tight binding.
In the case of B1, the binding signal stood at 0.451 enrichment R.
The same measure for B2: 2.17 enrichment R.
In the case of B3, the binding signal was 1.05 enrichment R.
Under B4 stands 0.703 enrichment R; under B5, 0.802 enrichment R; under B6, 0.381 enrichment R.
Under B7 stands 0.815 enrichment R; under B8, 0.569 enrichment R; under B9, 1.02 enrichment R.
Under B10 stands 1.02 enrichment R.
Take B11: the binding signal turned out to be 0.622 enrichment R.
Under B12 stands 0.526 enrichment R; under B13, 1.07 enrichment R; under B14, 4.03 enrichment R.
Under B15 stands 0.564 enrichment R; under B16, 8.5 enrichment R.
The same measure for B17: 0.246 enrichment R.
Turning to B18, the binding signal turned out to be 2.3 enrichment R.
B19 registered a binding signal of 0.382 enrichment R.
The same measure for B20: 0.527 enrichment R; for B21: 0.888 enrichment R.
Under B22 stands 0.593 enrichment R.
